From PMC4466662
No constants are given. Whether binding was seen depends on the method and setting. In cells and extracts the contact can be indirect. Some results given as binding are weak or reduced against the parent protein; the word gives no strength. Each block holds one substance with its values, some of them ahead of it.

The chains behind the UniProt entries cited, without tags or fusion partners. Where a name states a change or a piece, a line headed by the entry shows the natural chain unless it says otherwise. A line that says so, or that is headed by a name, gives the form on record, which may keep a tag or linker. Residues count along the entry.
UniProt Q9GZX5: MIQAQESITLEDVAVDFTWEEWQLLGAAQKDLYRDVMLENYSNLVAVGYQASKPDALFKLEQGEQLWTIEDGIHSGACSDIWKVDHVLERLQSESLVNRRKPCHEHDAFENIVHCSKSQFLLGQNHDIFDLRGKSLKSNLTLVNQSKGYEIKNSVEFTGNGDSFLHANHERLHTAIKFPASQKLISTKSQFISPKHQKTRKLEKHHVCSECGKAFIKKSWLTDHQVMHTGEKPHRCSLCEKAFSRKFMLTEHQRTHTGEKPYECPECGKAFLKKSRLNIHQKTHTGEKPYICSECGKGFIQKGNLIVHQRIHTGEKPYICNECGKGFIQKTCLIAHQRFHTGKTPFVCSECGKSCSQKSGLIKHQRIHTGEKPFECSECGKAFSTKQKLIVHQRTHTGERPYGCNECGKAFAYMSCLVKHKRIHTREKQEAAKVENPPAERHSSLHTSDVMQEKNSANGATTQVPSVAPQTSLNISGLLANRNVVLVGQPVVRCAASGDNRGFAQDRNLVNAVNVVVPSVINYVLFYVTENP
UniProt P40337: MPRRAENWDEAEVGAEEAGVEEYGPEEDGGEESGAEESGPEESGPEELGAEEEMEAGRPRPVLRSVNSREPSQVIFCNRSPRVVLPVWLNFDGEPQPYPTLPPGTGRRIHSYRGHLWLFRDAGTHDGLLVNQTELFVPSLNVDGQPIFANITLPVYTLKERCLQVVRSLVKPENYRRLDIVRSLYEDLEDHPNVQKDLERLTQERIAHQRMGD
Flag-VHL 1–154 aa: residues 1-154 of P40337
Flag-VHL Δ115–154 aa (P40337, form named): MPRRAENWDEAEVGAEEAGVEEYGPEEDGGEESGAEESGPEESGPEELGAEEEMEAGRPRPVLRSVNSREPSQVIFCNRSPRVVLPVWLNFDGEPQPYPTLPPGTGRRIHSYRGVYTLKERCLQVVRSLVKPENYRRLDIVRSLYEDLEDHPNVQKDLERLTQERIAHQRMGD
UniProt Q16665: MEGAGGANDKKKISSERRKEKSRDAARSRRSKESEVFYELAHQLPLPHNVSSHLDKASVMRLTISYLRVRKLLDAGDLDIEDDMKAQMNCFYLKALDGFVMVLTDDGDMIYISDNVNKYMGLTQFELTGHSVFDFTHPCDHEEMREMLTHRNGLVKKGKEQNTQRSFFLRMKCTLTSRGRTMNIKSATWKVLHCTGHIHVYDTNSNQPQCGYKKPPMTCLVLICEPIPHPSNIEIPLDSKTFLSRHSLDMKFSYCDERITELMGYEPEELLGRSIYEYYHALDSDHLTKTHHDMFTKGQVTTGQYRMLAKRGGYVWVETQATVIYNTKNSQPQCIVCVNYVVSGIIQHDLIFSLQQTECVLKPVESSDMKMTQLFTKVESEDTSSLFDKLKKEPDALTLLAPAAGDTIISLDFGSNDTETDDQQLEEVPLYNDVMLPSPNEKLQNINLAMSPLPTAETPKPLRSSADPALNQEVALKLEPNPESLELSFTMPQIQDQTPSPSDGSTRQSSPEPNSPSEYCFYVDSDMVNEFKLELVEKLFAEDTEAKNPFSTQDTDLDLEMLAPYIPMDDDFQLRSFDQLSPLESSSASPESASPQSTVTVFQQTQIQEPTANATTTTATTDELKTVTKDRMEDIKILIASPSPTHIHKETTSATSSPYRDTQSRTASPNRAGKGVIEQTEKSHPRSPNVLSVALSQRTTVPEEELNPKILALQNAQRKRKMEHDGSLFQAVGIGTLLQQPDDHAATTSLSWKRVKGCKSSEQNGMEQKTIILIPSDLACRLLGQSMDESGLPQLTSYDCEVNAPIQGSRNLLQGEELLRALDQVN
UniProt Q09472: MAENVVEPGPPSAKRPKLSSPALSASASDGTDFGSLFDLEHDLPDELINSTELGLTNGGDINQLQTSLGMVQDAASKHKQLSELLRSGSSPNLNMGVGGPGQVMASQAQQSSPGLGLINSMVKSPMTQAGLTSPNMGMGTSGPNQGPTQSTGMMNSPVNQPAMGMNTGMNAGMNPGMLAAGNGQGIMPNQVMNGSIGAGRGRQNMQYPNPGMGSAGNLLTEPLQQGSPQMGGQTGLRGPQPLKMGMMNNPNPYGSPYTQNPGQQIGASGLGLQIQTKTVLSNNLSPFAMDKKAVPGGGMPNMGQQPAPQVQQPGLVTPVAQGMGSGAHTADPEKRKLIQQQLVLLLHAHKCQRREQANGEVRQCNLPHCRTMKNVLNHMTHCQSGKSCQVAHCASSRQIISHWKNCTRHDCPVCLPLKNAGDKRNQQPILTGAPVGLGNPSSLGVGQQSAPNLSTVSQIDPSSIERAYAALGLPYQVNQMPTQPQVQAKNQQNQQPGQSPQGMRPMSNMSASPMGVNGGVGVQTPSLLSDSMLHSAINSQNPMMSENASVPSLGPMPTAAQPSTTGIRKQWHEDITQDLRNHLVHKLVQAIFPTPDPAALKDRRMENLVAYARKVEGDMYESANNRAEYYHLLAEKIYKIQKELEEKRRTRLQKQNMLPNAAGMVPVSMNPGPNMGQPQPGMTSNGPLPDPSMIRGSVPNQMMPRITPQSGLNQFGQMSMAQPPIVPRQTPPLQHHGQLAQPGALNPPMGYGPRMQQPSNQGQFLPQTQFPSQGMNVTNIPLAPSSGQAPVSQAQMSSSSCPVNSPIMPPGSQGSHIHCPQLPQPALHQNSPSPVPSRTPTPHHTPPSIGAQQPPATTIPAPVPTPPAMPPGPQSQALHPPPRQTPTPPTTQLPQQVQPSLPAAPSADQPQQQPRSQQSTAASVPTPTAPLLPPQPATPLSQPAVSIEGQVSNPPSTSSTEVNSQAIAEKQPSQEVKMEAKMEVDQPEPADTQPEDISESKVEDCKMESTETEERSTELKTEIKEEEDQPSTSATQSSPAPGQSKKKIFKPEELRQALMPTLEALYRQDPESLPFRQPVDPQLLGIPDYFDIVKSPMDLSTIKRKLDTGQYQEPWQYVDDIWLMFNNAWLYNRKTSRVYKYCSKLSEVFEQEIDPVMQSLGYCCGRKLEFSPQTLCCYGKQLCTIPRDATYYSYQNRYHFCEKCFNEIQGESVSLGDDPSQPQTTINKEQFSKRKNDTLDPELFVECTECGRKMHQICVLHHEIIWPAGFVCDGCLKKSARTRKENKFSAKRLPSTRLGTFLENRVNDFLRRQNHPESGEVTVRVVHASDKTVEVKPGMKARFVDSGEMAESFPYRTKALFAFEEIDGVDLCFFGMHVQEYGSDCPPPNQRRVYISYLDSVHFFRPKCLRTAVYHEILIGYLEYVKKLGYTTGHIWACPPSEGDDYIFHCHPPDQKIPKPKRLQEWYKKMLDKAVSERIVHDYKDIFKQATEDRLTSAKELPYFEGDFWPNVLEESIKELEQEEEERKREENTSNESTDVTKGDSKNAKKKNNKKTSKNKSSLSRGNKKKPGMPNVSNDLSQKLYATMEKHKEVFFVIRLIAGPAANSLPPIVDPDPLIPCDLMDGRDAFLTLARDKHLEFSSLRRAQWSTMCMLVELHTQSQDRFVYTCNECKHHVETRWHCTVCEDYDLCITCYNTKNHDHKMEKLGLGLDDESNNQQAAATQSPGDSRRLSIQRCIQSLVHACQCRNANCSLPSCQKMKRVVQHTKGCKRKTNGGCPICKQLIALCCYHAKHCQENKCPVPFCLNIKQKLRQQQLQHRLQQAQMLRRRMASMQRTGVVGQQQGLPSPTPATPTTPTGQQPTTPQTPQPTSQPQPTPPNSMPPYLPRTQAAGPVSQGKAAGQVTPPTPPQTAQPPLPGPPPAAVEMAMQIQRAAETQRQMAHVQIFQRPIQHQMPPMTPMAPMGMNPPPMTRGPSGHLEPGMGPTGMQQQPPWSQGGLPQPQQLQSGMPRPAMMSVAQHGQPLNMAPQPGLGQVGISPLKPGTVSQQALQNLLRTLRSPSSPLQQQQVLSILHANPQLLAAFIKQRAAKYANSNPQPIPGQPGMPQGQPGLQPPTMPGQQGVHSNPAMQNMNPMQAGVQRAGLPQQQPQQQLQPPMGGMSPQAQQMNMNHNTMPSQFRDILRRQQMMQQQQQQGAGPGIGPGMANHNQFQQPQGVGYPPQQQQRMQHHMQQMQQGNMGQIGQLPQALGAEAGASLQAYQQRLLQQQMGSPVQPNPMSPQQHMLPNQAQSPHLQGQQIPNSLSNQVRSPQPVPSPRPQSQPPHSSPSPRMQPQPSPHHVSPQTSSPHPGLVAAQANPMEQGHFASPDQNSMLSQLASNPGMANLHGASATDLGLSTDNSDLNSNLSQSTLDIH

Key:
[1] = molecular target: Flag-ZBRK1 (human) (UniProt Q9GZX5); experiment: co-IP; HEK293T co-transfected with Flag-ZBRK1, HA-VHL and EGFP-HIF1α; precipitating antibody not told in the text (Supplementary Figure S5A)
[2] = molecular target: GST-VHL (human) (UniProt P40337); experiment: pull-down; GST-VHL purified from E. coli on glutathione-Sepharose 4B, incubated with lysates of Flag-ZBRK1-transfected HEK293T cells; NETN buffer; blot with anti-Flag; only the target purified
[3] = molecular target: Flag-ZBRK1 (human) (UniProt Q9GZX5); experiment: co-IP; HEK293T transfected with Flag- and HA-tagged constructs; lysed in NETN buffer; IP with anti-Flag and Protein G Agarose overnight at 4°C; blot with anti-HA
[4] = molecular target: Flag-VHL 1–154 aa (human) (UniProt P40337); experiment: as above
[5] = molecular target: Flag-VHL Δ115–154 aa (human) (UniProt P40337); experiment: as above
[6] = molecular target: Flag-VHL (human) (UniProt P40337); experiment: as above
[7] = molecular target: ZBRK1 (endogenous, ACHN cells) (human (endogenous in ACHN)) (UniProt Q9GZX5); experiment: co-IP; second step of tandem affinity purification: the desthiobiotin eluate from Strep-Tactin beads precipitated with anti-ZBRK1 and Protein G Agarose overnight at 4°C; blot with anti-Flag and anti-p300
[8] = molecular target: SF-VHL (human) (UniProt P40337); experiment: pull-down; first step of tandem affinity purification: lysate (NETN) of ACHN cells stably expressing SF-VHL on Strep-Tactin Sepharose 4 h at 4°C, eluted with 2.5 mM desthiobiotin; blot with anti-Flag, anti-ZBRK1, anti-p300
[9] = molecular target: VHL (endogenous, ACHN cells) (human (endogenous in ACHN)) (UniProt P40337); experiment: co-IP; endogenous proteins, ACHN cell lysates; IP with anti-VHL (control rabbit IgG); blot with anti-ZBRK1 and anti-p300

Substance: Flag-ZBRK1 (from UniProt Q9GZX5 1-532)
binding [2]: binds

Substance: HA-ZBRK1 (from UniProt Q9GZX5 1-532)
binding [4]: binds
binding [5]: binds
binding [6]: binds

Substance: SF-VHL (from UniProt P40337 1-213)
binding [7]: binds

Substance: ZBRK1 (endogenous, ACHN cells) (from UniProt Q9GZX5 1-532)
binding [8]: binds
binding [9]: binds

Second part, the substance after the results:

binding [1]: no binding
Substance: EGFP-HIF1α (from UniProt Q16665 1-826)

binding [3]: binds
binding [1]: binds
Substance: HA-VHL (from UniProt P40337 1-213)

binding [8]: binds
binding [9]: binds
Substance: p300 (endogenous, ACHN cells) (from UniProt Q09472 1-2414)
